# Data as given in publication PMC6919601, “Identification of Plasmodium dipeptidyl aminopeptidase allosteric inhibitors by high throughput screening” (PLoS ONE, 2019).
# The whole screen tested about 110,000 compounds, of which about 230 (0.21%) showed an effect of 50% or more. The list shows a part of the results.
# Target: DPAP1 (Plasmodium falciparum, UniProt Q8IIJ9)
# Assay: primary screen, percent inhibition; read by cleavage of a fluorogenic dipeptide substrate; higher = more effect of the substance
# Parameters: species or system P. falciparum D10 trophozoite lysates; single well
# 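Note: 30 min substrate incubation versus DMSO and 10 µM JCP410 controls.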
# Sequence of DPAP1 (Q8IIJ9 whole entry, looked up): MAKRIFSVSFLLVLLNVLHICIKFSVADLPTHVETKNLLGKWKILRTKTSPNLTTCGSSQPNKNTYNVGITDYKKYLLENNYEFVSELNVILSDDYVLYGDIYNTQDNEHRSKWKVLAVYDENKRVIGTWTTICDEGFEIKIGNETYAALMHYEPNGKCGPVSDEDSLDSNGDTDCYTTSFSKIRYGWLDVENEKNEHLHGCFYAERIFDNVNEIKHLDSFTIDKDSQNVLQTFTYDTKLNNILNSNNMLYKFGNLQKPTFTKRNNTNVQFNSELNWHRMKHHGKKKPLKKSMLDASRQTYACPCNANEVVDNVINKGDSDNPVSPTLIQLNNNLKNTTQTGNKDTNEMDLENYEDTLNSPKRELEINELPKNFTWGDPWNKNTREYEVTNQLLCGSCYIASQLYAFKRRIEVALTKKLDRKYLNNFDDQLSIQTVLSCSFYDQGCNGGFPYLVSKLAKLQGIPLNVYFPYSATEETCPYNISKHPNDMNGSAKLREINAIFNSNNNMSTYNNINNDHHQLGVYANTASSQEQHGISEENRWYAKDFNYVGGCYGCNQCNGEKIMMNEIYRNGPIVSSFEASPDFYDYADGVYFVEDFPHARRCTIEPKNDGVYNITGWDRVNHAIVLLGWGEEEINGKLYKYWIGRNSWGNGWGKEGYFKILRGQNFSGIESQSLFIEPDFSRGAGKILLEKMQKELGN
row,SMILES,% Inhibition @ 10 uM [%]
1,CN1CC[C@@]2(O)CCCC[C@@H]2[C@H]1c1cc([N+](=O)[O-])ccc1O,-2.32
2,Cc1ccccc1OCCCOc1ccccc1/C=C1\NC(=O)NC1=O,-3.75
3,Cc1ccc(S(=O)(=O)N2CCN(Cc3noc(CCC(=O)N4CCCC4)n3)CC2)c(C)c1,0.00226
4,N#C/C(=C/Nc1ccccc1)c1nc(-c2cccc(Br)c2)cs1,0.317
5,CC(C)C[C@H](NC(=O)OC(C)c1ccccc1)C(=O)NCC#N (some centres unmarked),-4.72
6,Brc1ccc(CNC23CN4CN(CN(C4)C2)C3)cc1,2.22
7,O=C(NCc1ccccc1C(F)(F)F)C1CCN(c2cnccn2)CC1,5.54
8,Cc1nc2c(c(C)c1CCC(=O)NCC1CCN(CCc3cccs3)CC1)c(=O)n(C)c(=O)n2C,-1.3
9,O=C1NC(c2ccc(C(=O)O)cc2)C(C(=O)c2cccs2)C(O)(C(F)(F)F)N1 (centres unmarked),-0.641
10,COc1ccc(Cc2nc3ccccc3n2C(C)C)cc1,-2.28
11,COc1ccc2c3c(ccc2c1)C1CCC(=O)N1CC3 (centres unmarked),5.42
12,Cc1ccc(Nc2nc(CC(=O)O)cs2)c(C)c1,3.65
13,c1coc(CNC2Cc3ccccc3C2)c1,5.03
14,Cc1ccc2oc(C(=O)Nc3sc4c(c3C(N)=O)CCCC4)cc(=O)c2c1,0.248
15,CC(C)N(Cc1nc(-c2ccc(Cl)cc2)no1)C(=O)N1CCOCC1,0.486
16,CCCC(=O)NCc1nc2ccccc2[nH]1,1.94
17,CC1CC(=O)C2=C(C1)OC(N)=C(C#N)C2c1cccc(Cl)c1 (centres unmarked),-6.82
18,CCc1ccc2nc(N3CCC(C(=O)NCCN(C)C)CC3)sc2c1,-5.51
19,COc1ccccc1CNC(=O)c1cnc2cc(C)ccn2c1=O,-3.44
20,CN1CCN(CCC(=O)NCc2ccccc2)CC1,2.27
21,Cc1oc2ccc(O)c(CN(C)Cc3ccccc3)c2c1C(=O)NCc1ccccc1,2.14
22,CC1(C)Cc2c(c(N3CCCC3)nc3sc4c(N5CCCC5)ncnc4c23)CO1,3.93
23,COc1cc(C(=O)NC2CCCC(C(F)(F)F)C2)cc(OC)c1OC (centres unmarked),0.52
24,CC(C)OCCCNC(=O)[C@@H](c1ccccc1)N1Cc2ccccc2C1=O,-0.465
25,O=C(NCc1ccc(Cl)cc1)C(=O)NCc1ccc(Cl)cc1,1.29

row,SMILES,% Inhibition @ 10 uM [%]
1,CCc1cc2c(=O)n(-c3ccc(Cl)cc3)c(=S)[nH]c2s1,21.1
2,COc1ccc2[nH]c(C(=O)O)c(NC(C)=O)c2c1,-3.44
3,CC(=O)N1c2ccccc2N=C2CC(C)(C)CC(O)=C2C1c1ccc(Br)cc1 (centres unmarked),1.02
4,Cc1ccccc1OCCn1c(C(O)c2ccccc2)nc2ccccc21 (centres unmarked),2.73
5,CCN1CCC(Nc2ccc(SC)cc2)CC1,-5.59
6,COc1ccc(C2=NS(=O)(=O)N(C)C(C(=O)N3CCN(C(=O)c4ccco4)CC3)=C2)cc1,-2.84
7,COc1ccc(/C=C2\N=C(c3ccc(-c4ccccc4)cc3)OC2=O)c(OC)c1OC,2.98
8,COc1ccc(/C=C2/NC(=O)N(Cc3ccccc3)C2=O)cc1Cl,6.68
9,O=C(Cn1ncc2c3ccccc3nc-2c1O)N(Cc1ccco1)C1CCCCC1,-4.81
10,CCc1ccc(-n2nnc(-c3nc(-c4ccccc4F)no3)c2N)cc1,4.23
11,COc1cccc(C2CC(C(F)(F)F)n3ncc(C(=O)NCc4ccc(F)cc4)c3N2)c1 (centres unmarked),3.35
12,CSc1ncc2c(=O)n(Cc3ccccc3)ccc2n1,4.01
13,Cc1ccc(NC2=NC(=O)CC(C(=O)Nc3ccc(C)c(C)c3)N2)cc1 (centres unmarked),-0.884
14,COc1cccc(C(CC(=O)Nc2sc3c(c2C#N)CCCC3)NC(=O)c2ccccc2)c1 (centres unmarked),-4.7
15,CC(=O)c1ccc(Sc2ccc(Cl)cc2C(=O)O)cc1,-8.26
16,CC1CCC(N[C@H]2CCCCNC2=O)CC1 (some centres unmarked),-8.99
17,Cc1ccc(OCCN2CCN(C(=O)CSc3nc4ccccc4nc3N3CCCC3)CC2)cc1,-1.72
18,COc1cc2c(cc1OC)C(C(=O)N1CCOCC1)C(c1cccs1)N(C)C2=O (centres unmarked),1.83
19,O=C(c1cc(-c2ccc(Cl)cc2)n[nH]1)N1CCn2c1nc1ccccc12,3.47
20,O=C(NC(=O)c1cccc(C(F)(F)F)c1)OC1CCS(=O)(=O)C1 (centres unmarked),1.57
21,CCN1CCC2(CC1)OC(=O)C(C)=C2C(=O)NCc1cccs1,-3.25
22,C=CCNc1cc(-c2ccccc2)nc2nc3ccccc3n12,6.74
23,CC1=C(c2ccc(C)c(C)c2)S(=O)(=O)N=C1N1CCC(C(=O)NCc2ccccc2Cl)CC1,6.31
24,Cc1ccc(CCNC(=O)C2CCCN(S(=O)(=O)c3ccc4nc(O)ccc4c3)C2)cc1 (centres unmarked),-3.43
25,CCC(C)Cn1c(C(C)O)nc2ccccc21 (centres unmarked),-4.02
